From PubChem BioAssay AID504845 (National Center for Advancing Translational Sciences (NCATS), 2011)
Hit rate of the full screen: of about 390,000 compounds, about 150 (0.038%) were called active. Inconclusive means that the source gave no clear call. Such entries were picked first, then a sample of the others. Calls come from the whole dose curve; as a rule, active = well fitted inhibition curve with a large enough effect; inconclusive = small, poorly fitted or top-dose-only effect; inactive = no such curve, though single readings can be large or run the other way. A potency beside an inconclusive call is a rough fit, not a confirmed value.

Target: Regulator of G-protein signaling 4 (Homo sapiens) (UniProt P49798)
Chain of UniProt P49798 (P49798 whole entry, looked up): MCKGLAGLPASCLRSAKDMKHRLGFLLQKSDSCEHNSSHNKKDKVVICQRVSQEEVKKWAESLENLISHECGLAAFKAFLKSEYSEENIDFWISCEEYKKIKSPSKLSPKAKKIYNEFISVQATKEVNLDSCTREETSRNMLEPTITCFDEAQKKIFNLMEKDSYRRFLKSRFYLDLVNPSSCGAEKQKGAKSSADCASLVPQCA
Test: Inhibitors of Regulator of G Protein Signaling (RGS) 4: qHTS; note: nearly all actives have a fitted effect of over 75% in size
Settings: Transcreener GDP fluorescence polarization, RGS4-accelerated GTP hydrolysis; series mostly up to 114 µM
Procedure, shortened: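 MLSMR compounds (23 nl, pin-transferred) preincubated 10 min at room temperature with a 500nM (2x) first reagent, then RGS4 at 900nM (2x) plus Transcreener GDP mix added; fluorescence polarization (620/688 nm) read before and after 90 min at 30 °C.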
Potency is the fitted concentration of half-maximal effect; tags give direction and shape of the fitted curve.

SMILES	Potency
CCn1c(=O)c(-c2nc3ccccc3[nH]2)c(O)c2ccccc21	inactive
COc1cc2c(cc1OC)C(c1ccc(-c3cc(Cl)ccc3Cl)o1)=NCC2	inconclusive: 50.1 µM [inhibitor, partial curve, poor fit]
COc1ccc(-c2nc(-c3ccccc3)ncc2S(C)(=O)=O)cc1	inconclusive: 28.2 µM [inhibitor, full curve, poor fit]
Cc1onc(-c2ccccc2)c1C(=O)NC(=S)Nc1sc2c(c1C#N)CCCC2	inconclusive: 10 µM [inhibitor, full curve, poor fit]
COC(=O)/C=C\C(=O)Nc1cccc([N+](=O)[O-])c1	inconclusive: 31.6 µM [inhibitor, full curve, poor fit]
Cc1cc(C)cc(NC(=O)CSc2ccc(-c3ccco3)nn2)c1	inactive
S=C(Nc1ccccc1)N1N=C(c2cccs2)CC1c1cccs1 (configuration not stated)	inconclusive: 17.8 µM [inhibitor, full curve, poor fit]
O=C(N/N=C/C(Cl)=C/c1ccccc1)c1ccc2c(c1)OCO2	inconclusive: 17.8 µM [inhibitor, full curve, poor fit]
COC(=O)N1C(=O)[C@@](c2ccccc2)(C(C)C)N1C(=O)OC	inactive
C=CCn1c(CSc2nc3ccccc3s2)nnc1SCC(=O)NCc1cccnc1	inconclusive: 100 µM [inhibitor, single point]
COc1cc(/C=C/C(=O)OCC(=O)Nc2sc3c(c2C#N)CCC(C)C3)ccc1OCC#N (configuration not stated)	inconclusive: 79.4 µM [inhibitor, partial curve, poor fit]
C#CCOCCOCCOCCNc1nc(N2CCN(C(=O)CCCCCCCCCCNC(=O)Cn3cc(CCCCCN)nn3)CC2)nc(N2CCN(C(=O)CCCCCCCCCCNC(=O)[C@@H](CCC(=O)O)n3cc(CCCCCN)nn3)CC2)n1	inconclusive: 35.5 µM [inhibitor, full curve, poor fit]
Cc1ccc(NC(=O)CSc2nc(-c3cccs3)nc3cc(=O)[nH]n23)cc1C	inconclusive: 35.5 µM [inhibitor, partial curve, poor fit]
COc1ccc(-c2cn3cccnc3n2)cc1NC(=O)Nc1cc(C)ccc1C	inconclusive: 17.8 µM [inhibitor, full curve, poor fit]
O=C(/C=C/Sc1ccccc1)c1ccc(Cl)cc1	inconclusive: 17.8 µM [inhibitor, full curve, poor fit]
Cc1noc(C)c1COC(=O)c1ccc(S(=O)(=O)NCc2ccco2)cc1	inconclusive: 79.4 µM [inhibitor, single point]
COc1ccc2sc(SCCCS(=O)(=O)O)[n+](CCCS(=O)(=O)[O-])c2c1	inconclusive: 31.6 µM [inhibitor, full curve, poor fit]
Cn1c(SCC(=O)c2cc(Cl)c(Cl)s2)nnc1-c1ccco1	inconclusive: 17.8 µM [inhibitor, full curve, poor fit]
CCN(CC)CCSc1nc2c([nH]1)c(=S)n(C)c(=O)n2C	inactive
O=C1/C(=C/c2cccnc2)SC(=S)N1Cc1ccco1	inconclusive: 79.4 µM [inhibitor, partial curve, poor fit]
Cc1ccc(-c2n[nH]c(=O)c3ccccc23)cc1S(=O)(=O)Nc1ccc(F)cc1	inconclusive: 89.1 µM [inhibitor, single point]

SMILES	Potency
C=CCn1c(O)c(/C=C2\C=NN=C2c2ccccc2)sc1=S	inactive
COc1ccc(Cl)cc1NC(=O)CN(C)CC(=O)N(CC(C)C)c1c(N)n(CC(C)C)c(=O)[nH]c1=O	inconclusive: 79.4 µM [inhibitor, single point]
COc1ccc(NC(=O)[C@H](Cc2c[nH]c3ccccc23)NC(=O)[C@@H]2Cc3ccccc3CN2)cc1	inactive
Cc1csc(NC(=O)c2ccc(N3CCCC3=O)cc2)n1	inactive
CC(C)(C)OC(=O)[C@H](Cc1ccccc1)NC(=O)c1[nH]cnc1C(=O)Nc1cccc(Cl)c1	inactive
Cc1ccc(/C=c2\sc3nc(-c4ccccc4Br)nn3c2=O)o1	inactive
Cc1cc(C)cc(NC(=O)CSc2cc(C(=O)c3nccn3C)c3ccccc3n2)c1	inconclusive: 31.6 µM [inhibitor, partial curve, poor fit]
N=C1/C(=C\c2ccc(SCc3ccco3)o2)C(=O)N=C2SC=NN12	inconclusive: 100 µM [inhibitor, partial curve, poor fit]
CC(C)COCC(CN(Cc1ccccc1)c1ccccc1)N1CCCC1 (configuration not stated)	inconclusive: 8.44 µM [inhibitor, partial curve, poor fit]
CCOc1ccc(-c2nnc(-c3ccncc3)o2)cc1	inconclusive: 79.4 µM [inhibitor, partial curve, poor fit]
CCC(c1nnnn1Cc1ccccc1)N(Cc1ccccc1)Cc1cc2cc(C)ccc2[nH]c1=O (configuration not stated)	inconclusive: 39.8 µM [inhibitor, full curve, poor fit]
O=C(O)c1cccc(S(=O)(=O)NCCc2ccccc2)c1	inconclusive: 70.8 µM [inhibitor, partial curve, poor fit]
CCn1cc(C(=O)NC(=S)Nc2ccccc2[N+](=O)[O-])cn1	inconclusive: 35.5 µM [inhibitor, full curve, poor fit]
CC(=O)c1ccc(OCc2cc(C(=O)N3CC[C@@H]4CCCC[C@H]4C3)no2)cc1	inactive
O=C(N/N=C\C=C\c1ccco1)c1cncc(Br)c1	inconclusive: 44.7 µM [inhibitor, partial curve, poor fit]
Cc1ccc(C(=O)OCC(=O)c2c[nH]c3ccccc23)cc1NC(=O)c1ccco1	inconclusive: 70.8 µM [inhibitor, partial curve, poor fit]
CC1CN(C(=O)COC(=O)CSc2ccc([N+](=O)[O-])cc2)CC(C)O1 (configuration not stated)	inconclusive: 79.4 µM [inhibitor, partial curve, poor fit]
C/C(CC(=O)Nc1cc(C)ccn1)=N\NC(=O)c1cccc(C)c1O	inconclusive: 89.1 µM [inhibitor, single point]
COC(=O)c1ccccc1NC(=S)NC(=O)c1ccc2c(c1)OCO2	inconclusive: 50.1 µM [inhibitor, partial curve, poor fit]
C#CCOc1ccc(/C=C2/C(=O)ON=C2C)cc1OCC	inconclusive: 22.4 µM [inhibitor, full curve, poor fit]
COC(=O)c1ccccc1NC(=O)c1ccc2c(c1)OCCO2	inactive

SMILES	Potency
COc1ccc(OCc2cc(C(=O)N[C@H]3CCCCNC3=O)no2)c(Cl)c1	inactive
COCCOCCn1c(/C=C/c2ccccc2)nc2ccccc21	inconclusive: 25.1 µM [inhibitor, full curve, poor fit]
CCCOc1ccc(Cn2c(O)cc(=O)[nH]c2=O)cc1	inconclusive: 50.1 µM [inhibitor, partial curve, poor fit]
Cc1cc(C)nc(/N=C2/NC(=O)CS2)n1	inconclusive: 17.8 µM [inhibitor, full curve, poor fit]
COc1ccc(CCn2c(O)cc3nn(-c4nc5ccccc5s4)c(=O)c-3c2C)cc1	inconclusive: 89.1 µM [inhibitor, partial curve, poor fit]
O=C(/C=C/c1ccc(N2CCC(c3ccccc3)=N2)cc1)c1ccccc1	inconclusive: 100 µM [inhibitor, partial curve, poor fit]
Cc1nn(C)c2c1c(C(F)(F)F)cc(=O)n2C(C)C(=O)NCCc1ccccc1 (configuration not stated)	inconclusive: 89.1 µM [inhibitor, single point]
Brc1ccc(C2=CC(c3cccs3)n3ncnc3N2)cc1 (configuration not stated)	inconclusive: 50.1 µM [inhibitor, partial curve, poor fit]
O=C(CSc1nc(-c2cccs2)nc2cc(=O)[nH]n12)Nc1cccc(C(F)(F)F)c1	inconclusive: 89.1 µM [inhibitor, partial curve, poor fit]
Cc1cc(N2CCOCC2)nc2ccc(NC(=O)CCC(=O)N3CCCCC3)cc12	inactive
CCOc1cc(C2C(C#N)=C(N)Oc3cc(N)ccc32)ccc1O (configuration not stated)	inconclusive: 100 µM [inhibitor, single point]
Fc1ccc(-c2nn3c(C4COc5ccccc5O4)nnc3s2)cc1 (configuration not stated)	inconclusive: 79.4 µM [inhibitor, partial curve, poor fit]
CCOc1ccc(S(=O)(=O)c2cn(Cc3ccccc3C)c3ccc(OC)cc3c2=O)cc1	inconclusive: 44.7 µM [inhibitor, partial curve, poor fit]
CC1CCN(CCC(=O)Nc2ccc(Br)cc2)CC1	inactive
CCC12CN3CC(CC)(CN(C1)C3c1ccc([N+](=O)[O-])o1)C2=O (configuration not stated)	inconclusive: 70.8 µM [inhibitor, partial curve, poor fit]
COc1ccc(N[C@@H]2CCN3C(=O)c4ccccc4[C@@H]3C[C@H]2O)cc1	inactive
COC(=O)Oc1nsnc1N1CCOCC1	inconclusive: 17.8 µM [inhibitor, full curve, poor fit]
CCOc1ccc(NC(=O)CN2CCN(CC(=O)c3ccc(OCC)cc3)CC2)cc1	inconclusive: 79.4 µM [inhibitor, single point]
N#CNC(=Nc1ccccc1)SCc1ccc(C(=O)O)cc1	inconclusive: 79.4 µM [inhibitor, partial curve, poor fit]
CCCCS(=O)(=O)CC(O)CSc1nc(-c2ccc(C)cc2)cc(-c2ccccc2)c1C#N (configuration not stated)	inconclusive: 50.1 µM [inhibitor, partial curve, poor fit]
